Data on two molecules can be found in article PMC8542387 (2021).

Assay in all cases: two-hybrid; Psk1 constructs as bait (pGBT8), Mip1 constructs as prey (pGAD GH); budding yeast Y2HGold; ADE2 and HIS3 reporters (adenine and histidine auxotrophic markers)
Test [1] deals with T1, Psk1 full length, two-hybrid bait (S. pombe) (UniProt Q12706).
T1 sequence: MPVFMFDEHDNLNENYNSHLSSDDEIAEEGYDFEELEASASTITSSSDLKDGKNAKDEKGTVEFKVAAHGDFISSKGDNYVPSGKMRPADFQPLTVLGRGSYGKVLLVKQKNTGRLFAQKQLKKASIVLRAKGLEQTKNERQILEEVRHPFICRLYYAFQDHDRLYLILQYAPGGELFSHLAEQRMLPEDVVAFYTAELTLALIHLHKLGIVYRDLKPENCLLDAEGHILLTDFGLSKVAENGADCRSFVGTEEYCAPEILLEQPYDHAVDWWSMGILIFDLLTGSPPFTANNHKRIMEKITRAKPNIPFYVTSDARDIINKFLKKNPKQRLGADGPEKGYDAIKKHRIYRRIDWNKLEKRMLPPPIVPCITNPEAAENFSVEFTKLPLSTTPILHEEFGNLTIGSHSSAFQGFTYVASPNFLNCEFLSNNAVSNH

Test [2] deals with T2, Psk1 C-terminal fragment (amino acids 343-436), two-hybrid bait (S. pombe) (UniProt Q12706).
T2 sequence: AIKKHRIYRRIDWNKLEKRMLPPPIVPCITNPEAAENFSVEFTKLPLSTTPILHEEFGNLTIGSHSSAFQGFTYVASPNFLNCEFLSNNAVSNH

Test [3] addresses T3, Psk1 fragment lacking the N-terminal 10 residues (amino acids 11-436), two-hybrid bait (S. pombe) (UniProt Q12706).
T3 sequence: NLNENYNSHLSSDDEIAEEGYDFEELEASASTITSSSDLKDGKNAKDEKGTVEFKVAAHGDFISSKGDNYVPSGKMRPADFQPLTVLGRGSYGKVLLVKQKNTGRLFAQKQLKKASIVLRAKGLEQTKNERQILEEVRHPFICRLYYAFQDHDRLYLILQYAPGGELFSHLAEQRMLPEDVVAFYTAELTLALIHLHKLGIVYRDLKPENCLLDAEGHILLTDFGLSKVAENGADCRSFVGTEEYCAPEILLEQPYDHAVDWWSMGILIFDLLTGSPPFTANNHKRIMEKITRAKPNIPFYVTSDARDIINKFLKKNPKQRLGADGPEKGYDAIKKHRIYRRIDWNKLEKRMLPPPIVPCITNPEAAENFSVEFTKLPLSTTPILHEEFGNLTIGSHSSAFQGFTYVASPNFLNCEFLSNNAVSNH

Test [4] concerns the target T4, Psk1 N-terminal fragment (amino acids 1-90), two-hybrid bait (S. pombe) (UniProt Q12706).
T4 sequence: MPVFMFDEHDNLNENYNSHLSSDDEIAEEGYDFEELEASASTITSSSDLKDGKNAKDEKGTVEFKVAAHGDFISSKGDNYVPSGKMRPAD

The target in test [5] is T5, Psk1 kinase catalytic domain (amino acids 83-369), two-hybrid bait (S. pombe) (UniProt Q12706).
T5 sequence: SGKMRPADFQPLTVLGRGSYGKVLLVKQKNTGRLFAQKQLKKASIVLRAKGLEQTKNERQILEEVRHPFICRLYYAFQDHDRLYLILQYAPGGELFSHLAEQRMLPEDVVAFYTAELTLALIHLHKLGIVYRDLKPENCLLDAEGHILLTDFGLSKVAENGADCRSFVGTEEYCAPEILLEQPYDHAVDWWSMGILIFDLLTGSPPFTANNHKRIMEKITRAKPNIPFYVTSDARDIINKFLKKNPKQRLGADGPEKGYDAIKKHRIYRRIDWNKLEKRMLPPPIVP

These are yes or no findings as the source states them, for the method shown. Some entries that bind do so weakly or less than the wild type.

B1: Mip1 (fission yeast RAPTOR ortholog), two-hybrid prey (protein, UniProt P87141 1-1313)
chain: MNDRISEVSGSSRARRSVLSYGTTETGSDRYTENSNIATENGVDTASSMIDGIQSGFPQPRHGFEEEYNNAEYINMLEQVFYMYYTDKRHRGVISKKNAEPTETIHDWRMRERLKTVSAALLVCLNIGVDPPDVIKPNPAAKYECWIDPFSLPASKALEAIGKNLQQQYETLSMRTRYRHYLDPAIEEVKKLCIGQRRNAKEERILFHYNGHGVPMPTASGEIWVFNKNYTQYIPVSLYDLQSWLGAPCIYVYDCSAAGNIIVNFNRFAEQRDKEALRIAKQNPNVLAMPSHTSCIQLAACGPKETLPMNPDLPADLFTSCLTSPIEISVRWYVLQNPFPNKLNLNMLLKIPGRLQDRRTPLGELNWIFTAITDTIAWNVFPKHLFRRLFRQDLMVAALFRNFLLAERIMLVHSCHPQSSPELPPTHDHPMWNSWDLAIDNCLSQLPDMLDAESKGIAYEYKHSTFFSEQLTAFEVWLSQGLISRKPPDQLPLVLQVLLSQVHRLRALILLSKFLDLGVWAVDLALSIGIFPYVLKLLQSPAIELKPVLVFIWARILAVDDSCQADLLKDNGYGYFVQILNPNSSIFPSSNISEHRAMCAFILSVFCRGFPQGQLACLNPQVLSHCLSHLNSPDSLLRQWACLCISQLWENYSEAKWSGTRDNAHVKLAEIIVDSVPEVRASVLTAFTTFLGFPEKTEEVVAVETYIAIAALAALSDASPLVRHELVIFLSHFVVNYKKQLMVVAYESSLADILEKKNHNSISASTIYETVWQAVLVLAADPSIEISLAAEAIINYVYQSMLNSELRESFLAFLLQHLPALHKASLSKDTDTNSVTSDPKPHPFVPSVSENKILNRSFSLTRSLKGLALSLAGSDRASELLSLNGENKPAESNLNHLTSAKVPGPPAFNELEYQSELDMPLTSYLFDWSRKYFTEPQMRPNEDDEPGSICYNQRLWRRNRNEKLIYRTRPLAEYSTNGRWNQQLMTFNNTIAPRKLMFHQFEDQLITLGDKDIIQVWDWRRNRCLNSFKTSASATTNVTDMQLLNEDDVALLMTGSSDGTIKLYRDYENEKVELVTSWNSLSDLVFGDRNASLLMSWQQNCGHLLVAGDVRVIRIWDASKEICYANLPVRSSNSITSLTSDLVGCNIIVAGFSDGVLRVYDKRLPARDSLTDVWKEHSSEIVNVEMQSSGMRELISASSDGEVKLWDIRMNHSLQTFSTDNSGLTSLTVHSHAPVYATGSSNQSIKIWDTLGQNINTFRENPRFLNQPKPSSLMCLKFHPHHLLLACGDNTDSRVNLYSCTKNEIHTDSPNEF
Turning to B1, the binding result is “binds” in test [1]; “no binding” in test [2]; “no binding” in test [3]; “binds” in test [4]; “no binding” in test [5].

B2: Mip1-R358A, two-hybrid prey (protein, UniProt P87141 1-1313)
chain: MNDRISEVSGSSRARRSVLSYGTTETGSDRYTENSNIATENGVDTASSMIDGIQSGFPQPRHGFEEEYNNAEYINMLEQVFYMYYTDKRHRGVISKKNAEPTETIHDWRMRERLKTVSAALLVCLNIGVDPPDVIKPNPAAKYECWIDPFSLPASKALEAIGKNLQQQYETLSMRTRYRHYLDPAIEEVKKLCIGQRRNAKEERILFHYNGHGVPMPTASGEIWVFNKNYTQYIPVSLYDLQSWLGAPCIYVYDCSAAGNIIVNFNRFAEQRDKEALRIAKQNPNVLAMPSHTSCIQLAACGPKETLPMNPDLPADLFTSCLTSPIEISVRWYVLQNPFPNKLNLNMLLKIPGRLQDARTPLGELNWIFTAITDTIAWNVFPKHLFRRLFRQDLMVAALFRNFLLAERIMLVHSCHPQSSPELPPTHDHPMWNSWDLAIDNCLSQLPDMLDAESKGIAYEYKHSTFFSEQLTAFEVWLSQGLISRKPPDQLPLVLQVLLSQVHRLRALILLSKFLDLGVWAVDLALSIGIFPYVLKLLQSPAIELKPVLVFIWARILAVDDSCQADLLKDNGYGYFVQILNPNSSIFPSSNISEHRAMCAFILSVFCRGFPQGQLACLNPQVLSHCLSHLNSPDSLLRQWACLCISQLWENYSEAKWSGTRDNAHVKLAEIIVDSVPEVRASVLTAFTTFLGFPEKTEEVVAVETYIAIAALAALSDASPLVRHELVIFLSHFVVNYKKQLMVVAYESSLADILEKKNHNSISASTIYETVWQAVLVLAADPSIEISLAAEAIINYVYQSMLNSELRESFLAFLLQHLPALHKASLSKDTDTNSVTSDPKPHPFVPSVSENKILNRSFSLTRSLKGLALSLAGSDRASELLSLNGENKPAESNLNHLTSAKVPGPPAFNELEYQSELDMPLTSYLFDWSRKYFTEPQMRPNEDDEPGSICYNQRLWRRNRNEKLIYRTRPLAEYSTNGRWNQQLMTFNNTIAPRKLMFHQFEDQLITLGDKDIIQVWDWRRNRCLNSFKTSASATTNVTDMQLLNEDDVALLMTGSSDGTIKLYRDYENEKVELVTSWNSLSDLVFGDRNASLLMSWQQNCGHLLVAGDVRVIRIWDASKEICYANLPVRSSNSITSLTSDLVGCNIIVAGFSDGVLRVYDKRLPARDSLTDVWKEHSSEIVNVEMQSSGMRELISASSDGEVKLWDIRMNHSLQTFSTDNSGLTSLTVHSHAPVYATGSSNQSIKIWDTLGQNINTFRENPRFLNQPKPSSLMCLKFHPHHLLLACGDNTDSRVNLYSCTKNEIHTDSPNEF
B2: in test [1], the binding result is “binds”.
